# Data from PubChem BioAssay AID1458 (National Center for Advancing Translational Sciences (NCATS), 2008).
# Hit rate of the full screen: of about 210,000 compounds, about 5,900 (2.8%) were called active. Inconclusive results, whose numbers are uncertain, are shown with a selection of clear calls. Calls come from the whole dose curve; as a rule, active = well fitted activation curve with a large enough effect; inconclusive = small, poorly fitted or top-dose-only effect; inactive = no such curve, though single readings can be large or run the other way. Potencies of inconclusive entries are doubtful fits and often do not repeat.
# Experiment: qHTS Assay for Enhancers of SMN2 Splice Variant Expression; note: nearly all actives have a fitted effect of over 55% in size; for activity change, positive = activation: % of control where 0% means no effect
# Details: HEK293 SMN2-luciferase splicing reporter, luminescence, 30-36 h; activity change, positive = activation: at 46.1 µM (top of the series)
# Method in brief: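 HEK293 cells carry an SMN2 […]–luciferase reporter in which exon 7 inclusion puts luciferase in frame. Cells were plated 10-12 h before compound addition, then incubated 30-36 h at 37C. ONE-Glo luminescence was read; sodium butyrate at 4.5 mM final served as control.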
# Potency is the fitted concentration of half-maximal effect; tags give direction and shape of the fitted curve.
SMILES,"activity change, positive = activation",Potency
CSc1nnc2c3ccccc3n(Cc3ccccc3)c2n1,inactive: -6.71%,–
CCC(=O)NC(=S)Nc1ccc(-c2nc3ccccc3s2)cc1,–,active: 5.01 µM
O=C(NC(CCl)c1ccccc1)c1ccc(Cl)cc1 (stereo unspecified),inactive: -8.75%,–
COc1ccc(NC(=O)c2cc(C(C)C)on2)c(OC)c1,–,active: 15.8 µM
Cn1cc(Br)c(C(=O)NNC(=O)c2ccc(Cl)cc2)n1,–,"inconclusive: 15.8 µM [activator, partial curve, poor fit]"
COc1ccc(NC(=O)c2cc(Br)c(Br)s2)cn1,inactive: 3.2%,–
Cc1cccc(-c2noc(Cc3ccccc3)n2)c1,–,"inconclusive: 35.5 µM [activator, single point]"
O=[N+]([O-])c1cccc2ccc(/C=C/c3ccc(F)cc3)nc12,–,"inconclusive: 11.2 µM [activator, partial curve, poor fit]"
Cc1ccc(NCc2nnc(SCC(=O)c3ccccc3)n2Cc2ccco2)c(C)c1,–,"inconclusive: 0.178 µM [activator, full curve, poor fit]"
O=C(NC1CC1)C1CCCN1S(=O)(=O)c1ccc2ccccc2c1 (stereo unspecified),–,active: 11.2 µM
COc1ccc(C(=O)Nc2ccccn2)cc1,inactive: 2.42%,–
Clc1ccc(Nc2nc(-c3cccs3)cs2)nc1,–,active: 14.1 µM
Cc1nc2ccccc2c2c1C(=O)N(CCC1=CCCCC1)C2=O,–,"inconclusive: 0.02 µM [activator, full curve, poor fit]"
CCCCN(C(=O)c1ccco1)c1nnc(-c2cc(OC)c(OC)c(OC)c2)s1,–,"inconclusive: 5.62 µM [activator, partial curve, poor fit]"
CCCCNc1nc(Oc2ccc(OCC(N)=O)nn2)nc(N2CCOCC2)n1,inactive: -16.2%,–
O=C1N=c2ccccc2=C1c1sc(Nc2ccc(O)cc2)nc1O,inactive: 8.69%,–
O=C(Nc1ccc2c(c1)ncn2-c1ccccc1)c1ccco1,–,active: 12.6 µM
COc1ccc(-c2cc(=O)n(-c3nc4ccccc4[nH]3)[nH]2)cc1,–,"inconclusive: 7.94 µM [activator, partial curve]"
Cn1ccc(NC(=O)Nc2cccc([N+](=O)[O-])c2)n1,–,"inconclusive: 15.8 µM [activator, single point]"
CCOC(=O)Nc1nnc(-c2ccccc2OC)s1,–,"inconclusive: 35.5 µM [activator, single point]"
Cc1cccc(-c2noc(CCC(=O)NCC3CCCO3)n2)c1 (stereo unspecified),–,"inconclusive: 0.0089 µM [activator, full curve, poor fit]"
Cc1[nH]c(=O)[nH]c(=O)c1S(=O)(=O)N1CCOCC1,–,"inconclusive: 22.4 µM [activator, partial curve]"
CSc1nnnn1-c1cccc(O)c1,–,"inconclusive: 5.62 µM [activator, partial curve, poor fit]"
Cc1cc(N/N=C\c2ccccc2)nc(-c2ccccc2O)n1,–,"inconclusive: 17.8 µM [activator, single point]"
CN(C)/C=N/C(=S)Nc1ccc(Cl)cc1Cl,–,"inconclusive: 11.2 µM [activator, single point]"
COc1ccc(CS(=O)(=O)c2nc(C)cc(C)c2S(C)(=O)=O)cc1,inactive: 1.32%,–

SMILES,"activity change, positive = activation",Potency
Cc1csc(Nc2ccc(Cl)cc2)n1,–,"inconclusive: 20 µM [activator, partial curve, poor fit]"
Cc1cc(C)n2nc(-c3ccc(F)cc3)nc2n1,–,"inconclusive: 35.5 µM [activator, single point]"
COc1cc(OC)c2c(OC)c(-c3ccc4c(c3)OCO4)c(=O)oc2c1,–,"inconclusive: 35.5 µM [activator, single point]"
CN(Cc1c(O)ccc2c1oc(=O)c1ccccc12)C1CCCCC1,–,"inconclusive: 0.708 µM [activator, full curve, poor fit]"
CC[C@H](Cc1c(I)cc(I)c(N)c1I)C(=O)O,inactive: -4.42% [at 20.6 µM],–
Cc1ccccc1NC(=O)c1csc2c1CCCC2,–,"inconclusive: 31.6 µM [activator, single point]"
Cc1cc(Cl)ccc1OCC(=O)Nc1nc(-c2cccs2)cs1,inactive: -9.53%,–
CCn1c(=O)n(-c2ccc(F)c(Cl)c2)c(=O)c2c3c(sc21)CN(C(C)=O)CC3,inactive: -5.7%,–
c1ccc(-c2csc(N3CCCCCC3)n2)cc1,–,"inconclusive: 15.8 µM [activator, single point]"
O=C(Nc1ccccc1)c1ccccc1NC(=O)C(F)(F)F,–,active: 10 µM
O=C(NCc1cccc(Cl)c1)c1cnn2c1NC(c1ccco1)CC2C(F)(F)F (stereo unspecified),inactive: -3.88%,–
Cn1c(CSc2nc3ccccc3s2)nc2ccccc21,–,active: 15.8 µM
CCOC(=O)/C(C#N)=C/c1c(OCC)n(CC)c2ccccc12,–,"inconclusive: 0.398 µM [activator, single point]"
Cc1cc(C(=O)Nc2ccccc2)oc1C,–,active: 20 µM
O=C(NCCCN1CCCC1=O)c1csc2ccccc12,–,"inconclusive: 6.31 µM [activator, partial curve, poor fit]"
COc1ccc(N2CCN(c3c4c(nc5nncn35)CCC4)CC2)cc1,inactive: -45.1%,–
CCn1cc(C(=O)N2CCN(c3ccc(F)cc3)CC2)c(=O)c2cc(S(=O)(=O)N3CCOCC3)ccc21,inactive: -11.7%,–
CCc1nc(SCc2ccc(Cl)cc2)n[nH]1,–,"inconclusive: 8.91 µM [activator, partial curve]"
O=c1c(Cl)c(Cl)cnn1Cc1ccccc1Cl,–,"inconclusive: 3.16 µM [activator, partial curve, poor fit]"
CC(C)(C)c1ccc(Oc2nc3ccccn3c(=O)c2/C=C(\C#N)c2nc3ccccc3[nH]2)cc1,inactive: 1.89%,–
Cc1nn(C(=O)COc2ccccc2)c(C)c1Sc1ccccc1,inactive: 19.7%,–
COc1cnn(-c2ccc(C)cc2)c(=O)c1Br,–,"inconclusive: 17.8 µM [activator, partial curve]"
COc1ccc(Br)cc1/C=N/NC(=O)c1cc(OC)c(OC)c(OC)c1,–,"inconclusive: 4.47 µM [activator, single point]"
COc1ccc(CCNCC(O)c2ccccc2)cc1 (stereo unspecified),–,"inconclusive: 15.8 µM [activator, partial curve]"
CCS(=O)(=O)c1ccc(Sc2nncn2C)c([N+](=O)[O-])c1,–,"inconclusive: 3.55 µM [activator, full curve, poor fit]"
Cc1nc(N2CCOCC2)c2nc(-c3ccccc3)n(CCN(C)C)c2n1,inactive: 0.265%,–

SMILES,"activity change, positive = activation",Potency
O=C(Cn1cnc2sc(-c3ccccc3)cc2c1=O)NCCc1ccccc1,–,"inconclusive: 35.5 µM [activator, single point]"
C=CC(C)(O)CC/C=C(\C)CCC=C(C)C (stereo unspecified),inactive: 2.03%,–
O=C(NCCCN1CCN(c2cccc(Cl)c2)CC1)Nc1ccccc1C(F)(F)F,inactive: -1.48%,–
CCSc1nnc(NC(=O)c2ccc(S(=O)(=O)N(C)C)cc2)s1,–,"inconclusive: 17.8 µM [activator, partial curve, poor fit]"
CCc1ccc(CC2(O)CC(C)N(C)CC2C)cc1 (stereo unspecified),inactive: 2.1%,–
COc1cccc(C(=O)/C=C/c2ccc(N3CCCCC3)c([N+](=O)[O-])c2)c1,inactive: -20.2%,–
CCOC(=O)c1c(N)n[nH]c1-c1ccc(OC)cc1,–,"inconclusive: 0.126 µM [activator, full curve, poor fit]"
CC(=O)NC(Cc1c[nH]c2ccccc12)C(=O)Nc1ccc2c(c1)OCO2 (stereo unspecified),–,"inconclusive: 3.55 µM [activator, full curve, poor fit]"
Cc1nnc2ccc(-c3cccc(NC(=O)Cc4cccs4)c3)nn12,inactive: 6.41%,–
COc1ccccc1NC(=O)N(C1CCCC1)C1CCN(C(C)=O)CC1,inactive: -7.55%,–
COC(=O)c1cnn2c(C)c(Cc3cccc(F)c3)c(C)nc12,–,"inconclusive: 17.8 µM [activator, single point]"
O=C(CCS(=O)(=O)c1cccs1)Nc1ccc(C(=O)Nc2cccc(Cl)c2)cc1,–,"inconclusive: 14.1 µM [activator, single point]"
CC(=O)c1ccc(NC(=O)CSc2nnc(NC(=O)CN3CCOCC3)s2)cc1,–,"inconclusive: 35.5 µM [activator, single point]"
Cc1ccc(Nc2nnc(SCC(=O)Nc3cccc(S(=O)(=O)NC4=NCCCCC4)c3)s2)cc1,inactive: 12.2%,–
O=S(=O)(c1ccccc1)N1CCN(C(=S)NCCCN2CCOCC2)CC1,inactive: -4.33%,–
O=C(NCCc1ccccc1)c1ccccc1NC(=O)C1CC=CCC1C(=O)O (stereo unspecified),–,"inconclusive: 11.2 µM [activator, partial curve]"
C[C@@H](C(=O)Nc1cccc(S(=O)(=O)N2CCOCC2)c1)N1C(=O)C2CC=CCC2C1=O (stereo partly specified),inactive: -2.95%,–
COc1cc(/C=N/Nc2nc3c(c(=O)n(C)c(=O)n3C)n2Cc2ccccc2)ccc1OC(=O)c1ccco1,inactive: -33.2%,–
Cc1ccc(C)c(N2CCN(C(=O)Cn3ncc4c(=O)oc5ccc(C)cc5c43)CC2)c1,–,"inconclusive: 31.6 µM [activator, single point]"
CC(C)C(=O)Nc1ccc2oc(-c3cc(F)c(F)cc3Cl)nc2c1,–,"inconclusive: 35.5 µM [activator, single point]"
COCc1cc(=O)n2[nH]c(-c3cccc(Br)c3)cc2n1,–,"inconclusive: 20 µM [activator, partial curve, poor fit]"
O=C(NC(=S)Nc1ccc2c(c1)OCCO2)c1cccc2ccccc12,–,"inconclusive: 10 µM [activator, single point]"
COC(=O)c1ccccc1NC(=O)c1ccc2c(c1)OCCO2,–,"inconclusive: 15.8 µM [activator, partial curve, poor fit]"
COc1ccc(C2CC(C(F)(F)F)n3nc(C(=O)NCc4cn(C)nc4C)c(Cl)c3N2)cc1 (stereo unspecified),inactive: -22.9%,–
